Assay results: PubChem BioAssay AID652106 (National Center for Advancing Translational Sciences (NCATS), 2013)
In all, about 370,000 compounds went through this assay and about 500 (0.14%) were called active. The shares of active, inactive and inconclusive entries below differ from those in the screen. Calls follow the shape of the dose curve; as a rule, active = well fitted activation curve with a large enough effect; inconclusive = small, poorly fitted or top-dose-only effect; inactive = no such curve, though single readings can be large or run the other way. No potency is given beside an inconclusive call; the fits are too rough.

assay: qHTS of alpha-syn Inhibitors; settings: Yeast expressing alpha-synuclein, BacTiter-Glo, 24 h; Potency: growth rescue unless noted; growth rescue (activation): at 46.1 µM (top of the series) unless noted; also: nearly all actives have a fitted effect of over 65% in size; as to growth rescue (activation): % of control where 0% means no effect
How it was run: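 Galactose-induced alpha-syn yeast (OD600=0.02, raffinose-pregrown) + pinned cpd, 24 hr, 30 deg C; growth by BacTiter-Glo luminescence. Growth restoration scores as activation.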
Potency is read from the fitted curve at half-maximal effect; tags tell the direction and shape of the fitted curve.

Structure (SMILES)	Potency	growth rescue (activation)
Cc1ccc(-c2ccc(CN3C(C(C)C)C(=O)N(Cc4cn(Cc5ccco5)nn4)CCS3(=O)=O)cc2)cc1 (configuration not stated)	inconclusive [activator, single point]	–
COc1ccc(S(=O)(=O)N(C(=O)c2ccncc2)c2ccc3oc4c(c3c2)CCCC4)cc1	inconclusive [activator, single point]	–
Cc1ccc2oc(-c3ccccc3)c(C(=O)O)c(=O)c2c1	inconclusive [activator, single point]	–
C=C(C)CSc1nc2sc3c(c2c(=O)n1-c1ccccc1)CCN(C)C3	–	inactive: 15.7%
COC(=O)[C@]1(C)N[C@H](CN(C)S(=O)(=O)c2ccc(-c3ccccc3)cc2)[C@@H]2C(=O)N(C)C(=O)[C@@H]21	active: 3.16 µM	–
CC1(C)Oc2ccc3ccc(=O)oc3c2/C(=C/Nc2ccccn2)C1=O	–	inactive: -4.11%
C/C(=N/NS(=O)(=O)c1ccc(C(C)(C)C)cc1)c1ccc2c(c1)OCO2	inconclusive [activator, partial curve]	–
CC(C)c1cc(-c2cc(C(=O)NCc3ccccc3)on2)nc(NC2CCCC2)n1	inconclusive [activator, single point]	–
COc1ccccc1CC(=O)NO	inconclusive [activator, single point]	–
COc1ccc(CC(N)c2csc(NC(=O)c3cc(C(C)(C)C)oc3C)n2)cc1 (configuration not stated)	–	inconclusive: -34.8% [activator]
O=C(Cc1csc(-c2ccccc2)n1)NCc1ccc(F)cc1	–	inactive: 5.88%
CN1C(=O)C2C(c3ccc(N(C)C)cc3)NN(Cc3ccccc3)C2C1=O (configuration not stated)	–	inactive: 12.1%
CCN(C)C1CN(Cc2cn(Cc3ccc(C(F)(F)F)cc3)nn2)S(=O)(=O)C1 (configuration not stated)	inconclusive [activator, single point]	–
C[C@@H]1CN([C@@H](C)CO)C(=O)CCCn2nncc2CO[C@@H]1CN(C)C(=O)Cc1ccccc1	inconclusive [activator, full curve, poor fit]	–
COc1cc(CCC(=O)NCc2ccc(S(N)(=O)=O)cc2)cc(OC)c1OC	–	inactive: 3.43%
CC1=Nc2cc(C(=O)N3CCCC3)ccc2Sc2c(C)ccc(C)c21	inconclusive [activator, partial curve]	–
Cc1ccc2nc(NC3=NCN(Cc4cccnc4)CN3)nc(C)c2c1	inconclusive [activator, single point]	–
Cc1ccc(-c2csc(C(O)c3cccc(Cl)c3)n2)cc1C (configuration not stated)	inconclusive [activator, partial curve]	–
COc1ccc(-c2nc3c(Cl)cc(C(F)(F)F)cn3c2Cc2cccc(Cl)c2)cc1OC	inconclusive [activator, single point]	–
O=NN(CCc1ccncc1)c1ccc(OCc2ccccc2)cc1	inconclusive [activator, single point]	–
CC(CC(=O)Nc1ccc2c(c1)c(=O)n(C)n2-c1ccccc1F)c1ccccc1 (configuration not stated)	–	inactive: -3.18%
O=c1c2ccccc2nc(-c2ccccc2)n1Cc1ccc(Cl)cc1	–	inactive: 1.17%
CC(COc1ccccc1)NC(C)C(O)c1ccc(O)cc1 (configuration not stated)	inconclusive [activator, single point]	–

Structure (SMILES)	Potency	growth rescue (activation)
O=S(=O)(c1ccccc1)N(CC(O)Cn1c2ccccc2c2ccccc21)c1ccccc1 (configuration not stated)	inconclusive [activator, partial curve]	–
CCCc1cc(=O)oc2c(C)c3occ(C)c3cc12	–	inactive: 7.26%
CCOC(=O)c1cnn(-c2c(Cc3ccccc3)c(C)nc3c(-c4ccccc4)c(C)nn23)c1N	inconclusive [activator, single point]	–
O=C(NCc1cccc(C(F)(F)F)c1)c1ccc(=O)[nH]c1	inconclusive [activator, single point]	–
NC(=O)NC(c1ccccc1)c1ccccc1F (configuration not stated)	inconclusive [activator, single point]	–
O=C1CC(c2ccccc2)CC(O)=C1C=NCCN1CCN(C(=S)Nc2cccc(Cl)c2)CC1 (configuration not stated)	inconclusive [activator, partial curve]	–
Cc1ccc(S(=O)(=O)NCC(=O)NNC(=O)c2ccccc2Cl)cc1C	–	inactive: -9.7%
CN1C(=O)c2ccc(NC(=O)C3CC3)cc2C1=O	–	inactive: -4.8%
COc1ccc(N(CC(=O)Nc2cccc(N(C)S(C)(=O)=O)c2)S(=O)(=O)c2ccc(C)cc2)cc1	–	inactive: 9.38%
O=C1CC[C@@H](OCc2ccccc2)CCN1CC[C@H](Sc1ccccc1)c1ccccc1	inconclusive [activator, single point]	–
O=C(CC[C@H]1O[C@@H](n2ccc(=O)[nH]c2=O)[C@H](O)[C@@H]1O)N[C@H](Cc1ccccc1)C(=O)NCCCc1ccccc1	inconclusive [activator, single point]	–
CCCCCCCCCCCCCC(=O)NO	inconclusive [activator, full curve]	–
c1ccc(Cn2nnnc2C(c2cccs2)N2CCc3ccccc3C2)cc1 (configuration not stated)	inconclusive [activator, single point]	–
O=C(Cc1ccc(Cl)cc1Cl)Nc1ccncc1	inconclusive [activator, single point]	–
O=C(N/N=C/c1cc(O)ccc1Br)c1cccnc1	inconclusive [activator, single point]	–
COc1cc(OC)nc(Nc2nc(C(N)c3ccccc3Cl)cs2)n1 (configuration not stated)	inconclusive [activator, single point]	–
CCOc1cc2c(cc1OCC)C(c1ccc(F)cc1)NCC2 (configuration not stated)	–	inactive: -0.372%
COc1ccc(-c2nc(C)ncc2N=Nc2ccccc2)cc1	–	inactive: -1.32%
CC1(C(=O)NCc2ccccc2)Cc2c(-c3cccc(C(F)(F)F)c3)ccnc2O1 (configuration not stated)	inconclusive [activator, single point]	–
Cc1cccc(N2CCN(C(=O)COc3cccc4c3OC(C)(C)C4)CC2)c1C	–	inactive: 13.8%
COC(=O)c1ccccc1COc1cccn2c(N(C)Cc3cccs3)c(C)nc12	inconclusive [activator, single point]	–
O=C(O)Cc1cn(-c2ccccc2)nc1-c1ccccc1	inconclusive [activator, single point]	–
CC(=O)c1ccccc1OC(=O)c1ccc([N+](=O)[O-])o1	inconclusive [activator, single point]	–

Structure (SMILES)	Potency	growth rescue (activation)
CCCOc1ccc(C2c3c(oc4ccccc4c3=O)C(=O)N2CCCN2CCOCC2)cc1 (configuration not stated)	inconclusive [activator, single point]	–
Cc1cccn2c(=O)c3cc(C(=O)NC4CCCC4)c(=N)n(CC4CCCO4)c3nc12 (configuration not stated)	inconclusive [activator, single point]	–
COc1ccc(OC)c(C2NC(=O)NC(C)=C2C(=O)Nc2ccc(C)cc2)c1 (configuration not stated)	inconclusive [activator, single point]	–
O=C(c1ccccc1)N1N=C(c2ccccc2)CC1c1ccccc1O (configuration not stated)	inconclusive [activator, single point]	–
CCOc1ccc2[nH]c3c(NCCc4ccc(OC)c(OC)c4)ncnc3c2c1	inconclusive [activator, single point]	–
COc1ccc(OCC(=O)N/N=C/c2cccc3cccnc23)cc1	inconclusive [activator, single point]	–
COC(=O)c1noc(C)c1-c1ccnn1C(=O)c1ccc(Cl)cc1	inconclusive [activator, single point]	–
O=C(CN1CCCc2ccccc21)Nc1cccc(S(=O)(=O)N2CCCC2)c1	inconclusive [activator, single point]	–
Cc1nnsc1S(=O)c1ccc(Br)cc1 (configuration not stated)	inconclusive [activator, single point]	–
Oc1ccc(/C=N/n2c(COc3ccccc3)n[nH]c2=S)c(O)c1	–	inactive: -0.106%
C=C1C(=O)[C@]23C[C@H]1CC[C@H]2[C@]1(C)[C@@H](OC(C)=O)CC[C@@](C)(C(=O)O)[C@H]1C[C@@H]3O	inconclusive [activator, single point]	–
N#CCC(=N)N1CCN(c2ccc(Cl)cc2)CC1	inconclusive [activator, single point]	–
O=C(CCNS(=O)(=O)c1ccc(F)cc1)N1CCN(c2ncccn2)CC1	inconclusive [activator, single point]	–
CC(C)CCn1cnc2c1c(=O)[nH]c(=O)n2Cc1ccccc1	–	inactive: -9.03%
Cc1ccc(-c2nnc(SCC(=O)N3CC(C)CC(C)C3)o2)cc1C (configuration not stated)	inconclusive [activator, single point]	–
Cc1cc(C)c(NC(=O)CSc2nc3ncc(Br)cc3[nH]2)c(Cl)c1	inconclusive [activator, single point]	–
CCOC(=O)C1=C(C)NC(C)=C(C(=O)OCC)C1C(=O)OCC(=O)N(C)Cc1ccccc1	–	inactive: -9.79%
CCOc1ccccc1C(=O)NC(C(=O)OCC(=O)Nc1nnc(-c2ccccc2)o1)C(C)C (configuration not stated)	inconclusive [activator, single point]	–
CCOC(=O)/C(C#N)=C1/SC(C)C(=O)N1c1ccc(Br)cc1 (configuration not stated)	–	inactive: -0.347%
C[C@@H]1CN([C@@H](C)CO)S(=O)(=O)c2ccc(Br)cc2O[C@@H]1CN(C)C(=O)NC1CCCCC1	inconclusive [activator, single point]	–
COc1ccc(Br)c(C(=O)OCC(=O)NC(=O)NC2CCCC2)c1	inconclusive [activator, single point]	–
